These results are taken from PMC12820563.

Some of the results follow. The list includes weakly bound sequences.

The target of the assay is T1, MBP-FoxP3dN (UniProt Q99JB6).
T1 sequence: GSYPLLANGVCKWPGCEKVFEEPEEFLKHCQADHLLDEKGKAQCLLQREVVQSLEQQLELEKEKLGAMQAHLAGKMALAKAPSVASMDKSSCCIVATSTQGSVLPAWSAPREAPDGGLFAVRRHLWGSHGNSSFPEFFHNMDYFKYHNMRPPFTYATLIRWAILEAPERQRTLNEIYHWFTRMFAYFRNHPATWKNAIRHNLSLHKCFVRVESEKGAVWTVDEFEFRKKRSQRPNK
The assay is described as follows: PD-seq (MBP pull-down with sequencing). The settings on record: 20 mM Tris-HCl pH 7.5, 100 mM NaCl, 1.5 mM MgCl2, 0.4 uM protein, 0.1 uM dsDNA library, 30 min, room temperature, amylose pull-down; high values mean tight binding; double strand, one strand shown.
With “GATGATTGTTCTCCCAGCTGATGAATTGCAATTATCGAGTAAACAAATTTTCCTAATCTTTCTGTTCAAGCGCCATCTAC”, the binding signal (RPM ratio (pull-down/input)) worked out at 2.5.
With “GATGATTGTTCTCCCAGCTGATGAATTATGTTGGTCGAGTAAACAAATTTTCCTAATCTTTCTGTTCAAGCGCCATCTAC” the figure was 6.57; with “GATGATTGTTCTCCCAGCTGATGAATTTACTGCGTCGAGTAAACAAATTTTCCTAATCTTTCTGTTCAAGCGCCATCTAC”, 0.723; with “GATGATTGTTCTCCCAGCTGATGAATTATCCTACTCGAGTAAACAAATTTTCCTAATCTTTCTGTTCAAGCGCCATCTAC”, 0.31.
For the sequence “GATGATTGTTCTCCCAGCTGATGAATTGCTGGAATCGAGTAAACAAATTTTCCTAATCTTTCTGTTCAAGCGCCATCTAC”, the binding signal (RPM ratio (pull-down/input)) stood at 0.374.
With “GATGATTGTTCTCCCAGCTGATGAATTTTCATTTTCGAGTAAACAAATTTTCCTAATCTTTCTGTTCAAGCGCCATCTAC” the figure was 0.412; with “GATGATTGTTCTCCCAGCTGATGAATTAGTCTTATCGAGTAAACAAATTTTCCTAATCTTTCTGTTCAAGCGCCATCTAC”, 0.725.
The figure for “GATGATTGTTCTCCCAGCTGATGAATTCCTGGGTTCGAGTAAACAAATTTTCCTAATCTTTCTGTTCAAGCGCCATCTAC” is 0.257; for “GATGATTGTTCTCCCAGCTGATGAATTTATGCATTCGAGTAAACAAATTTTCCTAATCTTTCTGTTCAAGCGCCATCTAC” it is 7.56.
For “GATGATTGTTCTCCCAGCTGATGAATTCCAGGTCTCGAGTAAACAAATTTTCCTAATCTTTCTGTTCAAGCGCCATCTAC”, the binding signal (RPM ratio (pull-down/input)) turned out to be 0.374.
Turning to “GATGATTGTTCTCCCAGCTGATGAATTTGGTGGTTCGAGTAAACAAATTTTCCTAATCTTTCTGTTCAAGCGCCATCTAC”, the binding signal (RPM ratio (pull-down/input)) is 2.
The figure for “GATGATTGTTCTCCCAGCTGATGAATTTGACGACTCGAGTAAACAAATTTTCCTAATCTTTCTGTTCAAGCGCCATCTAC” is 0.407; for “GATGATTGTTCTCCCAGCTGATGAATTTAGGTCATCGAGTAAACAAATTTTCCTAATCTTTCTGTTCAAGCGCCATCTAC” it is 0.66; for “GATGATTGTTCTCCCAGCTGATGAATTCCTATGCTCGAGTAAACAAATTTTCCTAATCTTTCTGTTCAAGCGCCATCTAC” it is 0.379.
With “GATGATTGTTCTCCCAGCTGATGAATTTGGTCGATCGAGTAAACAAATTTTCCTAATCTTTCTGTTCAAGCGCCATCTAC” the figure was 0.337; with “GATGATTGTTCTCCCAGCTGATGAATTGTCGCTCTCGAGTAAACAAATTTTCCTAATCTTTCTGTTCAAGCGCCATCTAC”, 0.643; with “GATGATTGTTCTCCCAGCTGATGAATTTTAAAGATCGAGTAAACAAATTTTCCTAATCTTTCTGTTCAAGCGCCATCTAC”, 0.2.
Consider “GATGATTGTTCTCCCAGCTGATGAATTGCCCTGGTCGAGTAAACAAATTTTCCTAATCTTTCTGTTCAAGCGCCATCTAC”, for which the binding signal (RPM ratio (pull-down/input)) was found to be 0.333.
On to “GATGATTGTTCTCCCAGCTGATGAATTTAGAAAATCGAGTAAACAAATTTTCCTAATCTTTCTGTTCAAGCGCCATCTAC”, for which the binding signal (RPM ratio (pull-down/input)) amounted to 0.236.
With “GATGATTGTTCTCCCAGCTGATGAATTTCAACACTCGAGTAAACAAATTTTCCTAATCTTTCTGTTCAAGCGCCATCTAC” the figure was 0.617.
The figure for “GATGATTGTTCTCCCAGCTGATGAATTCGGTGAATCGAGTAAACAAATTTTCCTAATCTTTCTGTTCAAGCGCCATCTAC” is 0.279.
The figure for “GATGATTGTTCTCCCAGCTGATGAATTAGTAAGATCGAGTAAACAAATTTTCCTAATCTTTCTGTTCAAGCGCCATCTAC” is 0.273.
For the sequence “GATGATTGTTCTCCCAGCTGATGAATTATTCTTTTCGAGTAAACAAATTTTCCTAATCTTTCTGTTCAAGCGCCATCTAC”, the binding signal (RPM ratio (pull-down/input)) came out at 0.326.
As for “GATGATTGTTCTCCCAGCTGATGAATTGCCGGTTTCGAGTAAACAAATTTTCCTAATCTTTCTGTTCAAGCGCCATCTAC”, the binding signal (RPM ratio (pull-down/input)) is 0.667.
With “GATGATTGTTCTCCCAGCTGATGAATTCGCGTTCTCGAGTAAACAAATTTTCCTAATCTTTCTGTTCAAGCGCCATCTAC” the figure was 1.15.
On to “GATGATTGTTCTCCCAGCTGATGAATTCAATGCCTCGAGTAAACAAATTTTCCTAATCTTTCTGTTCAAGCGCCATCTAC”, for which the binding signal (RPM ratio (pull-down/input)) is 1.05.
With “GATGATTGTTCTCCCAGCTGATGAATTCCAATGGTCGAGTAAACAAATTTTCCTAATCTTTCTGTTCAAGCGCCATCTAC” the figure was 0.37.
Turning to “GATGATTGTTCTCCCAGCTGATGAATTTGTGCCCTCGAGTAAACAAATTTTCCTAATCTTTCTGTTCAAGCGCCATCTAC”, the binding signal (RPM ratio (pull-down/input)) worked out at 2.05.
As for “GATGATTGTTCTCCCAGCTGATGAATTACCTTCTTCGAGTAAACAAATTTTCCTAATCTTTCTGTTCAAGCGCCATCTAC”, the binding signal (RPM ratio (pull-down/input)) is 0.339.
The figure for “GATGATTGTTCTCCCAGCTGATGAATTTGACCGTTCGAGTAAACAAATTTTCCTAATCTTTCTGTTCAAGCGCCATCTAC” is 0.355.
The figure for “GATGATTGTTCTCCCAGCTGATGAATTGCTAGTTTCGAGTAAACAAATTTTCCTAATCTTTCTGTTCAAGCGCCATCTAC” is 0.902.
